Assay in all cases: protein-binding microarray (PBM)
What all share (conditions): PBM: ~300 nM protein, 6 mM HEPES pH 7.8, 80 mM KCl, 0.5 mM EDTA, 0.5 mM EGTA, 6% glycerol, 35 ng/ul poly-dIdC, 1% milk, 1 h, room temperature; Ap Aiptasia and Nv Nematostella (sea anemones) / Co Capsaspora / Aq Amphimedon (sponge) / Dm Drosophila / Hu human; RHD is the Rel homology domain; high values mean tight binding; most listed sequences are background and not binding sites; double strand, one strand shown

For one assay, the target named is T1, GST-Ap-NF-kB RHD (UniProt A0A913YAJ5).
T1 sequence: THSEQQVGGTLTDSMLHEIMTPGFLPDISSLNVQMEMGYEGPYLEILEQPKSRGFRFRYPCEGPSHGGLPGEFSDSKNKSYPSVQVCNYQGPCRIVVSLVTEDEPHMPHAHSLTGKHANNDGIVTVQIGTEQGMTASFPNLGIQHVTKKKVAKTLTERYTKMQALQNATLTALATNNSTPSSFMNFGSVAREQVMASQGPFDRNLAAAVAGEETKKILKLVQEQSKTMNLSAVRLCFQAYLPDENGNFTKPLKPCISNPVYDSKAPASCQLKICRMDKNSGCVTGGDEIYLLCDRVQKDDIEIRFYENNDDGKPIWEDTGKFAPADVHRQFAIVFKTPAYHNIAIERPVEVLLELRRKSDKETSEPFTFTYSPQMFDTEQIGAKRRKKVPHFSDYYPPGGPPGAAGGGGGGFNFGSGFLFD

The target in assay [1] is T2, GST-Nv-NF-kB (Cys allele) (UniProt E5G601).
T2 sequence: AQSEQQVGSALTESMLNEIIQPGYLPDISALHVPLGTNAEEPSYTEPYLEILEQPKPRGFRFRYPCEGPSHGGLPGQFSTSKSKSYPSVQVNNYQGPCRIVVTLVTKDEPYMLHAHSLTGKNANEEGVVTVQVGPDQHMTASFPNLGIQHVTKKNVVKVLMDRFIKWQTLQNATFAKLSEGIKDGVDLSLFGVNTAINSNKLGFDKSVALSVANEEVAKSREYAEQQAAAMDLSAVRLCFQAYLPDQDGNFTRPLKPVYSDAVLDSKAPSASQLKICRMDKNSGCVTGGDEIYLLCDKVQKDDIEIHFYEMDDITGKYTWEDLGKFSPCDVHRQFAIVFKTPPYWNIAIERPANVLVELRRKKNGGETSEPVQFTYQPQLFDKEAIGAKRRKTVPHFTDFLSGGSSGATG

The next assay addresses T3, GST-Co-NF-kB (UniProt F1ARL5).
T3 sequence: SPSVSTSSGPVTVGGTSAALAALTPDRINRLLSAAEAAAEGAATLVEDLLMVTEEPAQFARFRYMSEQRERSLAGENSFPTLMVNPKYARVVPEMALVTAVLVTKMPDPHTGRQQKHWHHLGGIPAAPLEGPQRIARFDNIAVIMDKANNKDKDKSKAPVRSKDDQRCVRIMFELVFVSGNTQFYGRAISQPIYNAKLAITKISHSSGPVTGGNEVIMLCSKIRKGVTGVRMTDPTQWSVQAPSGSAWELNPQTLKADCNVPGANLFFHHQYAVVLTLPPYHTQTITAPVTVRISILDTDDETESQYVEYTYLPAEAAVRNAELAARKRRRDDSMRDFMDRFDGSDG

The next assay concerns the target T4, GST-Dm-Relish (UniProt Q94527).
T4 sequence: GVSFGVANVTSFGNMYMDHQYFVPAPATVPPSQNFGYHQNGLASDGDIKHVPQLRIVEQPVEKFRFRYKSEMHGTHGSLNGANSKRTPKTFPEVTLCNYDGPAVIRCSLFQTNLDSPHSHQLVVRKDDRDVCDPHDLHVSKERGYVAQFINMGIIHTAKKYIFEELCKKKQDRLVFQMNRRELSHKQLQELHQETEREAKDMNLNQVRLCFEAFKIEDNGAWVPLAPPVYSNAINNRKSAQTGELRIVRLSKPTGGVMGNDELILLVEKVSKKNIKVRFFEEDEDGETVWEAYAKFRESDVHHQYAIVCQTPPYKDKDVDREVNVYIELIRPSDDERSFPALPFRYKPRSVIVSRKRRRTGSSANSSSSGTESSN

For another assay, the target named is T5, GST-Aq-NF-kB (UniProt A9Y5G7).
T5 sequence: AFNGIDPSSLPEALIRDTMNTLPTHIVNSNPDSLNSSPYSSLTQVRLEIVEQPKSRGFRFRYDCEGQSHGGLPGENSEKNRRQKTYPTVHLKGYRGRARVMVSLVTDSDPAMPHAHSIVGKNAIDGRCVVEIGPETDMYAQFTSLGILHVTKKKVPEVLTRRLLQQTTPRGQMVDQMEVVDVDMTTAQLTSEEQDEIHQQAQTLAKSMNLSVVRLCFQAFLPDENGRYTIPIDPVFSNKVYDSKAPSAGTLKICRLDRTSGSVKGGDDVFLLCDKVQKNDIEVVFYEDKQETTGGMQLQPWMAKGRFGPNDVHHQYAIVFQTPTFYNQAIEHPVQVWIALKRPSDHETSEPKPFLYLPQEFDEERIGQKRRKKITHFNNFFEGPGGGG

In publication PMC5700166 one finds binding signal data, which are given here for 14 sequences.

The list shows a part of the results, in another mix than the full data. The list includes weakly bound sequences.

With “CCGATTAACATCAACTCAGTTACTGATGTTAATCGGGTCTTGATTCGCTTGACGCTGCTG”, the binding signal is -0.601 z-score with GST-Ap-NF-kB RHD; -0.0737 z-score in assay [1]; -0.317 z-score in the assay with GST-Co-NF-kB; -0.2 z-score in the assay with GST-Dm-Relish; -0.281 z-score with GST-Aq-NF-kB.
The corresponding values for “CCGATTAACATCAACAGTCGATGTGATGTTAATCGGGTCTTGATTCGCTTGACGCTGCTG” are -0.448 z-score, -0.123 z-score, -0.744 z-score, -0.0548 z-score and -0.489 z-score.
For “CCGATTAACATCAATTTCTTATATGATGTTAATCGGGTCTTGATTCGCTTGACGCTGCTG” the same measures were -1.21 z-score, 0.425 z-score, 0.869 z-score, -0.262 z-score and -0.111 z-score.
The corresponding values for “CCGATTAACATCAAGAGAGAAAGTGATGTTAATCGGGTCTTGATTCGCTTGACGCTGCTG” are 0.235 z-score, 0.675 z-score, 1.16 z-score, 0.16 z-score and -0.0452 z-score.
As for “CCGATTAACATCAGGCAAAACCCTGATGTTAATCGGGTCTTGATTCGCTTGACGCTGCTG”, the binding signal with GST-Ap-NF-kB RHD is 0.663 z-score; in assay [1], 0.406 z-score; with GST-Co-NF-kB it was -0.66 z-score; with GST-Dm-Relish it was 0.922 z-score; with GST-Aq-NF-kB, 3.28 z-score.
The corresponding values for “CCGATTAACATCAATTATGTGCCTGATGTTAATCGGGTCTTGATTCGCTTGACGCTGCTG” are 0.0129 z-score, -0.308 z-score, 0.306 z-score, -0.226 z-score and -0.122 z-score.
For “CCGATTAACATCATAATTTCCAATGATGTTAATCGGGTCTTGATTCGCTTGACGCTGCTG” the same measures were -0.546 z-score, -0.178 z-score, -0.113 z-score, -0.156 z-score and -0.198 z-score.
For the sequence “CCGATTAACATCATGATTGTTTATGATGTTAATCGGGTCTTGATTCGCTTGACGCTGCTG”, the binding signal was -0.516 z-score with GST-Ap-NF-kB RHD; 0.186 z-score in assay [1]; -0.512 z-score with GST-Co-NF-kB; -0.651 z-score in the assay with GST-Dm-Relish; -0.191 z-score in the assay with GST-Aq-NF-kB.
On to “CCGATTAACATCACTCACGGAACTGATGTTAATCGGGTCTTGATTCGCTTGACGCTGCTG”, for which the binding signal is -0.363 z-score with GST-Ap-NF-kB RHD; -0.0571 z-score in assay [1]; 0.519 z-score with GST-Co-NF-kB; -0.0586 z-score with GST-Dm-Relish; -0.203 z-score in the assay with GST-Aq-NF-kB.
The corresponding values for “CCGATTAACATCAGAGGAAGTGATGATGTTAATCGGGTCTTGATTCGCTTGACGCTGCTG” are -0.126 z-score, 0.337 z-score, 0.641 z-score, -0.353 z-score and -0.338 z-score.
For “CCGATTAACATCAACGAGCAACATGATGTTAATCGGGTCTTGATTCGCTTGACGCTGCTG” the same measures were -0.241 z-score, -0.101 z-score, 0.341 z-score, -0.698 z-score and -0.325 z-score.
Consider “CCGATTAACATCATGGTCAAGCATGATGTTAATCGGGTCTTGATTCGCTTGACGCTGCTG”, for which the binding signal in the assay with GST-Ap-NF-kB RHD was -1.06 z-score; in assay [1], -1 z-score; with GST-Co-NF-kB it was -1.69 z-score; in the assay with GST-Dm-Relish, -0.819 z-score; in the assay with GST-Aq-NF-kB it was -0.853 z-score.
Consider “CCGATTAACATCAAGGCGCTCTATGATGTTAATCGGGTCTTGATTCGCTTGACGCTGCTG”, for which the binding signal with GST-Ap-NF-kB RHD was 0.0202 z-score; in assay [1] it was -0.201 z-score; in the assay with GST-Co-NF-kB it was -1.03 z-score; in the assay with GST-Dm-Relish, -0.721 z-score; in the assay with GST-Aq-NF-kB, -0.0756 z-score.
The corresponding values for “CCGATTAACATCACAATACACGCTGATGTTAATCGGGTCTTGATTCGCTTGACGCTGCTG” are -0.207 z-score, 0.18 z-score, 0.728 z-score, 1.05 z-score and 0.0152 z-score.
